The results in this text go back to the supplement of paper PMC4604168 (melanoma cell lines).

This is one part of the list. Most values come without repeats; read them as rough.
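Note: cells treated in 1,536-well plates, then fixed and DAPI-stained, with nuclei counted from automated high-throughput microscope images.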

This experiment concerns A2058. The experiment is described as follows: cell count relative to DMSO control; melanoma cells; higher = more viable cells. As to conditions: library dose: standard library concentration; 72 h.
In turn, `CC1(C)NC(=O)N(c2ccc([N+](=O)[O-])c(C(F)(F)F)c2)C1=O` [nilutamide] + N#Cc1c(O)c2c(-c3ccc(-c4ccccc4O)cc3)csc2[nH]c1=O [A769662] (first compound 5 µM, partner dose 10 µM) came in with a cell count of 113%.

The molecule `O=C(O)c1ccc(-c2c[nH]c3ncc(-c4ccccc4)cc23)cc1C1CCCC1` + COc1ccc(COc2ccc(Cc3cnc(N)nc3N)cc2OC)cc1 [GW2580] (first compound 0.8 µM, partner dose 5 µM) gave a cell count of 91%.

In turn, `O=C(Nc1cccc(Cl)c1)Nc1ncc(CCNc2ncnc3ccsc23)s1` + COc1cc(N2CCC(N3CCN(C)CC3)CC2)ccc1Nc1ncc(Cl)c(Nc2ccccc2S(=O)(=O)C(C)C)n1 [NVP-TAE684] (first compound 0.004 µM, partner dose 0.4 µM) registered a cell count of 66%.

In turn, `C[C@@H]1CCN(C(=O)CC#N)C[C@@H]1N(C)c1ncnc2[nH]ccc12` + COc1ccc(COc2ccc(Cc3cnc(N)nc3N)cc2OC)cc1 [GW2580] (first compound 5 µM, partner dose 5 µM) gave a cell count of 103%.

For the molecule `COc1cc(Nc2ncc(F)c(Nc3ccc4c(n3)NC(=O)C(C)(C)O4)n2)cc(OC)c1OC` [Tamatinib] + COc1ccc(-c2ccc3c(N4CCOCC4)nc(N4C[C@@H](C)O[C@@H](C)C4)nc3n2)cc1CO [KU0063794] (first compound 2 µM, partner dose 0.1 µM), the cell count was determined as 65.4%.

`COc1cc(Nc2ncc(F)c(Nc3ccc4c(n3)NC(=O)C(C)(C)O4)n2)cc(OC)c1OC` [Tamatinib] + COc1cc(N2CCC(N3CCN(C)CC3)CC2)ccc1Nc1ncc(Cl)c(Nc2ccccc2S(=O)(=O)C(C)C)n1 [NVP-TAE684] (first compound 2 µM, partner dose 0.4 µM) came in with a cell count of 45.4%.
